PMC3758296
No constants are given. Whether binding was seen depends on the method and setting. In cells and extracts the contact can be indirect. Some entries that bind do so weakly or less than the wild type.

Sequences of proteins named here, by UniProt entry; tags and fusion partners are left off. A change or cut given only in a name is not applied to a line headed by its entry. A line that says so, or that is headed by a name, gives the form on record, which may keep a tag or linker.
UniProt P00441: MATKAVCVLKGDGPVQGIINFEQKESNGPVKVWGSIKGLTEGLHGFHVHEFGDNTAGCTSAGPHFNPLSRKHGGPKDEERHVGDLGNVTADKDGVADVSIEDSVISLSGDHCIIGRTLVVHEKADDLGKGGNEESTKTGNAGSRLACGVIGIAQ
human SOD1 G93A mutant protein, transgene product (P00441, form named): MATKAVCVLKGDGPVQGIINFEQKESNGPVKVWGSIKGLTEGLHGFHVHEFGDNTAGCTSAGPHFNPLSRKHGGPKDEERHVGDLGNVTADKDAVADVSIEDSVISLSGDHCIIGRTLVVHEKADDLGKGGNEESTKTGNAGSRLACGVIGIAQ
myc-tagged HSJ1a J domain mutant H31Q (P25686-2, form named): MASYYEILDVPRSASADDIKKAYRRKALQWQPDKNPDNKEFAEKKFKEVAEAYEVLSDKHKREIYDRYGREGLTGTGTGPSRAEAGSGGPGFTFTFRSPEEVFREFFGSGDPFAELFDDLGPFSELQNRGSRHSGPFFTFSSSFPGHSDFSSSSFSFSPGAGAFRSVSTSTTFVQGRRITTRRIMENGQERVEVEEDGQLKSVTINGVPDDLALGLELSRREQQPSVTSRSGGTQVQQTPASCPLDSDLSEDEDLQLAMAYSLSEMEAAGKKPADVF
myc-tagged HSJ1a UIM mutant (S219A/E222A/S262A/E265A) (P25686-2, form named): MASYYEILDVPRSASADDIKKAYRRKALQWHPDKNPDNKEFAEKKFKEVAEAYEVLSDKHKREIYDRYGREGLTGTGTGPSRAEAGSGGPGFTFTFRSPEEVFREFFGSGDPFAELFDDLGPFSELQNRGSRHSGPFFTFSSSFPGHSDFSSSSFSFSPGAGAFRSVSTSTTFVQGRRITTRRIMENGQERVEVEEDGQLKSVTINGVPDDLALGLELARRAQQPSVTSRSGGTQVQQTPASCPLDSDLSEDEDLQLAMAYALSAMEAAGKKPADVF
myc-tagged HSJ1a, wild type (P25686-2, form named): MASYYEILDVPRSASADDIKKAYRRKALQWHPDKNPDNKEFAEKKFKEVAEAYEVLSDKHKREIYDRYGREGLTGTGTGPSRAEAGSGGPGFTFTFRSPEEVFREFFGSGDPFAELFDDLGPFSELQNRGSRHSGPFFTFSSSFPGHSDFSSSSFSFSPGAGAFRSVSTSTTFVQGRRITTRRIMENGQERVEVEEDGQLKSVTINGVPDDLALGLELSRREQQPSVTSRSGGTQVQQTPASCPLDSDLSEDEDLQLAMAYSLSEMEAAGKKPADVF
UniProt Q9QYI5: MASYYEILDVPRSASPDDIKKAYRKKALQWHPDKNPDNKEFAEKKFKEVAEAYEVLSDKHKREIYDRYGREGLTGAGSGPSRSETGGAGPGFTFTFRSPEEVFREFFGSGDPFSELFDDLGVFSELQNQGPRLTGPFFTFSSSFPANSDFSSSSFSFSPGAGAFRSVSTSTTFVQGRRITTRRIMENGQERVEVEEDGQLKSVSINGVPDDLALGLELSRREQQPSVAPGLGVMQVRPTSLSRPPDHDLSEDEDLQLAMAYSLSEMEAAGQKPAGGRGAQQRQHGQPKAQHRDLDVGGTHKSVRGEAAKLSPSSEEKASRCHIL

Assays:
[1] = biological target: GFP-tagged SOD1 G93A (human) (UniProt P00441); test: co-IP; RIPA lysates of SK-N-SH cells co-transfected with GFP-SOD1 (WT or G93A) and myc-HSJ1a (wild type, H31Q or ΔUIM); reciprocal precipitation with anti-GFP or anti-myc (9E10) on protein-G Dynabeads, control IgG; Western blot with SOD-100 or S653
[2] = biological target: human SOD1 G93A mutant protein, transgene product (human) (UniProt P00441); test: co-IP; spinal cord lysates (PBS, protease inhibitors, sonicated) of WT, hHSJ1a, G93A and DBLE male mice at 120 days; reciprocal precipitation with anti-SOD1 (C4F6) or anti-HSJ1 (S653) on protein-G Dynabeads, control IgG; Western blot for HSJ1 and SOD1
[3] = biological target: human HSJ1a (DNAJB2a), transgene product (human) (UniProt P25686); test: as above
[4] = biological target: GFP-tagged wild-type SOD1 (human) (UniProt P00441); test: co-IP; RIPA lysates of SK-N-SH cells co-transfected with GFP-SOD1 (WT or G93A) and myc-HSJ1a (wild type, H31Q or ΔUIM); reciprocal precipitation with anti-GFP or anti-myc (9E10) on protein-G Dynabeads, control IgG; Western blot with SOD-100 or S653

Substance | binding [1] | binding [2] | also measured
myc-tagged HSJ1a J domain mutant H31Q (from UniProt P25686-2 1-277) | binds | – | –
myc-tagged HSJ1a UIM mutant (S219A/E222A/S262A/E265A) (from UniProt P25686-2 1-277) | binds | – | –
human HSJ1a (DNAJB2a), transgene product (from UniProt P25686-2 1-277) | – | binds | –
human SOD1 G93A mutant protein, transgene product (from UniProt P00441 1-154) | – | – | binding [3]: binds
myc-tagged HSJ1a, wild type (from UniProt P25686-2 1-277) | binds | – | binding [4]: binds weakly
endogenous mouse HSJ1b (from UniProt Q9QYI5 1-324) | – | no binding | –
